Laboratory results published in the supplement of paper PMC7125110.
± gives the standard error. For some of these results: Variants at the background level are over-represented here.

B1: glmS ribozyme (parent)
chain: AUAAAAGCGCCAGAACUACAGAAAUGUAGUUGACGAGGAGGAGGUUUAUCGAAUUUUCGGCGGAUGCCUCCAAA

Legend:
Conditions in all cases: with glucosamine-6-phosphate
[1] = variants of: B1; assay: self-cleavage kobs at 40 uM GlcN6P; higher = faster cleavage; RNA array
In short: (§1)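 Glucosamine-6-phosphate (40 μM to 10 mM) in HEPES/KCl/Mg(OAc)2 buffer was flowed over sequenced MiSeq chips, and tiles were imaged over ~14 h. Barcoded ribozyme variants there had been transcribed in situ by E. coli RNA polymerase and were tracked through a hybridised Cy3 probe at 37 °C. One- or two-exponential decay fits to per-tile medians, normalised to baseline and to non-cleaving reference variants, gave kobs. kcat and KM came from weighted Michaelis–Menten fits across concentrations.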

[2] = variants of: B1; assay: self-cleavage kobs at 640 uM GlcN6P; higher = faster cleavage; RNA array
In short: as §1

[3] = variants of: B1; assay: self-cleavage kobs at 160 uM GlcN6P; higher = faster cleavage; RNA array
In short: as §1

[4] = variants of: B1; assay: self-cleavage kobs at 2500 uM GlcN6P; higher = faster cleavage; RNA array
In short: as §1

[5] = variants of: B1; assay: self-cleavage kobs at 10000 uM GlcN6P; higher = faster cleavage; RNA array
In short: as §1

Variant	self-cleavage kobs at 40 uM GlcN6P [1]	self-cleavage kobs at 640 uM GlcN6P [2]	self-cleavage kobs at 160 uM GlcN6P [3]	self-cleavage kobs at 2500 uM GlcN6P [4]	self-cleavage kobs at 10000 uM GlcN6P [5]
AUAAAAGCGCCAGAAUUACAGAAAUGUAGUUGACGAGGAGGAGGUGUAUCGAAUUUUCGGCGGAUGCCUCCAAA	0.00014 ± 1.3e-05 s⁻¹	0.00131 ± 0.00016 s⁻¹	0.000489 ± 8.8e-05 s⁻¹	0.00323 ± 0.0005 s⁻¹	0.00531 ± 0.00055 s⁻¹
AUAAAAGCGCCAGAAUUACAGAAAUGUAGAUGACGAGGAGGAGGUUUAUCGCAUUUUCGGCGGAUGCCUCCAAA	< 1e-05 s⁻¹				
AUAAAAGCGCCAGAAGUACAGAAAUGUAGUUGAGGAGGAGGAGGUUUAUCGAAUUUUCGUGGGAAGGCUCCAAA	8.29e-05 ± 1.8e-05 s⁻¹			0.000198 ± 6.9e-05 s⁻¹	
AUAAAAGCGCCAGAAUUACAGAAAUGUAGUUUACGAGGAGGAUGUUUAUCUAAUUUUCGGCGGAUGCCGCCAAA	< 1e-05 s⁻¹				< 1e-05 s⁻¹
AUAAAAGCGCCAGAAUUACAGAAAUGUAGUUGACGAAGAGGAGGUUUAUCGAAUUUUCGGCGGAUGCCUCCAAA	7.36e-05 ± 1.1e-05 s⁻¹	0.000713 ± 7.9e-05 s⁻¹	0.000108 ± 1.3e-05 s⁻¹		
AUAAAAGCGCCAGAAGUACAGAAAUGUAGUUAACGAGGAGGAGCUUUAUCGAAUUUUUGGCGGAUGCCUCCAAA	< 1e-05 s⁻¹				< 1e-05 s⁻¹
AUAAAAGCGCCAGAAGUACAGAAAUGUAGUUGACGAGGAAGAGGUUUAUCGAAUUUUCGGCGGCUGCCUCCAAA	< 1e-05 s⁻¹				< 1e-05 s⁻¹
AUAAAAGCGCCAGAACUGCAGAAAUGUAGUUGACGAGGAGGAGGUUUAUCGAAUUUUCGGCGGAUGCCUCCAAA	0.00161 ± 0.00045 s⁻¹				0.0231 ± 0.01 s⁻¹
AUAAAAGCGCCAGAAUUACAGAAAUGUAGUUGACGAGGCGGAGGUUUAUCGAAUUUUCGGCGGAUGCCUCCAAA	0.000107 ± 1.4e-05 s⁻¹			0.00222 ± 0.00082 s⁻¹	0.00545 ± 0.0006 s⁻¹
AUAAAAGCGCCAGAAGUACAGAAAUGUAGUGGACGAGGAGGAGGUUUAUCGAAUUUUCGGCGGAUGCCUCCAAA	4.37e-05 ± 1.7e-05 s⁻¹	0.000186 ± 4.5e-05 s⁻¹	4.98e-05 ± 1.6e-05 s⁻¹	0.000366 ± 0.0001 s⁻¹	
AUAAAAGCGCCAGAAUUACAGAAAUGUAGUUGAAGAGGAGGAGGUUUAUCGAAUUUACGGCGGAGGCCUCCAAA	< 1e-05 s⁻¹				
AUAAAAGCGCCAGAAUUACAGAAAUGUACUUGGCGAGGAGGAGGUUUAUCGAAUUUUCGGCGGAUGCCUCCAAA	< 1e-05 s⁻¹				< 1e-05 s⁻¹
AUAAAAGCGCCAGAACUAAAGAAAUGUAGUUGACGUGGAGGAGAGUUAUCGAAUUUUCGGCGGAUGCCUCCAAA	< 1e-05 s⁻¹				< 1e-05 s⁻¹
AUAAAAGCGCCAGAAAUACAGAAAUGUAGUUGACGAGGAGGAGGUUUAUCGAAUUUUCGACUGAUGCCUCCAAA	< 1e-05 s⁻¹	< 1e-05 s⁻¹		< 1e-05 s⁻¹	< 1e-05 s⁻¹
AUAAAAGCGCCAGAAUUACAGAAAUGUAGUGGACGAGGAGGAGGUUUAUCAAAUUUUCGGCGGAUGCCUCCAAA	< 1e-05 s⁻¹				
AUAAAAGCGCCAGAAUUACAGAAAUGUAGUUGACGAGGAGGGGGUUUAUCGAAUUUCCGGCGGAUGCCUCCAAA	< 1e-05 s⁻¹				
